# Among all 140,000 compounds or so, about 240 (0.17%) were called active. The shares of active, inactive and inconclusive entries below differ from those in the screen. The call rests on the fitted dose curve; in most records, active means well fitted inhibition curve with a large enough effect; inconclusive means small, poorly fitted or top-dose-only effect; inactive means no such curve, though single readings can be large or run the other way. A potency beside an inconclusive call is a rough fit, not a confirmed value.
# Assay: Primary qHTS assay for inhibitors of alpha-synuclein gene (SNCA) expression; further: nearly all actives have a fitted effect of over 45% in size;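 on activity change, negative = inhibition: plate controls were DMSO cells for no effect and cell-free wells for full effect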
# Conditions: HEK-293 SNCA-luciferase knock-in, luminescence, 24 h; activity change, negative = inhibition: at 57.2 µM (top of the series) unless noted
# Potency means the concentration at half of the fitted maximal effect; tags describe the fitted curve by direction and shape.
SMILES,"activity change, negative = inhibition",Potency
Cc1nc(-c2c3n(c(=O)n(CC(=O)Nc4ccccc4Cl)c2=O)CCCC3)no1,inactive: 1.02%,–
Clc1ccc(Cn2ccnc2-c2cc3n(n2)CCCNC3)cc1Cl,–,"inconclusive: 17.8 µM [inhibitor, single point]"
O=C(Nc1ccc(OC(F)(F)F)cc1)c1cc(-c2ccc[nH]2)n[nH]1,inactive: 14.5%,–
CS(=O)(=O)Nc1cccc(-c2nc(Nc3ccccc3)c3ccccc3n2)c1,–,"inconclusive: 39.8 µM [inhibitor, single point]"
COc1ccc(CCNc2ncnc3c2c(-c2ccccc2)cn3-c2ccc(F)cc2)cc1OC,–,"inconclusive: 31.6 µM [inhibitor, single point]"
O=C(C1CCCC1)N1CC2(CCN(Cc3ccccn3)C2)Cc2ccccc21 (stereo not given),inactive: -2.85%,–
CCOc1ccc(CCNCc2c(C(=O)O)n(Cc3ccc(C)cc3)c3cc(OC)ccc23)cc1,–,"inconclusive: 35.5 µM [inhibitor, single point]"
COc1ccc(CCNC(=O)Cn2c(=O)n(-c3cc(OC)c(OC)c(OC)c3)c(=O)c3ccccc32)cc1OC,–,"inconclusive: 20 µM [inhibitor, single point]"
O=C(CN1CC2CC(C1)[C@H]1CCCC(=O)N1C2)NCCCN1CCc2ccccc2C1 (stereo not given in full),inactive: -16.7%,–
CC(C)(C)CC(=O)N1CCN2C(=O)c3cc(-c4ccc(Cl)cc4)ccc3NC(=O)[C@H]2C1,–,"inconclusive: 39.8 µM [inhibitor, single point]"
O=C1[C@@H]2C[C@@H](O)CN2C2(CN(Cc3ccccc3F)C2)C(=O)N1Cc1cccc(Cl)c1,–,"inconclusive: 8.91 µM [inhibitor, single point]"
COC(=O)[C@@H]1Cc2ncn(Cc3ccc(Cl)cc3)c2CN1Cc1cccs1,inactive: -22% [at 87.6 µM],–
O=C(C1CC1)N1CCC2(CC1)NCCc1c2[nH]c2ccccc12,–,"inconclusive: 39.8 µM [inhibitor, single point]"
CS(=O)(=O)N1C[C@H]2CCN(Cc3ccccc3C(F)(F)F)C[C@H]21,–,"inconclusive: 3.55 µM [inhibitor, single point]"
Cc1ccc(S(=O)(=O)c2nc(-c3ccccc3Cl)oc2N2CCCCCC2)cc1,–,"inconclusive: 17.8 µM [inhibitor, single point]"
COc1cccc(N2C(=O)CSC23C(=O)N(Cc2ccccc2)c2ccccc23)c1 (stereo not given),–,"inconclusive: 28.2 µM [inhibitor, partial curve, poor fit]"
COc1ccc(Cn2c(C(C)n3cccn3)n[nH]c2=O)cc1 (stereo not given),–,"inconclusive: 39.8 µM [inhibitor, single point]"
CN(Cc1cccnc1)C(=O)c1n[nH]c2c1CN(Cc1cccnc1)CC2,–,"inconclusive: 2.82 µM [inhibitor, full curve]"
O=C(O)c1c(-c2ccccc2)oc2ccc(OCc3ccc(Cl)c(Cl)c3)cc12,–,"inconclusive: 7.08 µM [inhibitor, single point]"
O=C(c1ccc2c(c1)N(C(=O)c1ccccc1)CC2)N1CCN(c2ccc(Cl)cc2)CC1,–,"inconclusive: 10 µM [inhibitor, partial curve, poor fit]"
C=CCn1cc2c3c(cccc31)[C@H](CC(C)C)N[C@H](C(=O)NC1CCCC1)C2,–,"inconclusive: 56.2 µM [inhibitor, single point]"
c1cc(-c2noc(C3CCOCC3)n2)ccc1OC1CNC1,inactive: 152%,–

SMILES,"activity change, negative = inhibition",Potency
COCC(=O)N[C@@H]1C[C@H](COC)[C@@H](O)[C@H]1O,inactive: 2.22% [at 87.6 µM],–
Cc1cnc(C(=O)N2CCOc3ccc(CCC(N)=O)cc3C2)cn1,–,"inconclusive: 39.8 µM [inhibitor, single point]"
NC(=O)CNC(=O)C1=C[C@@H](NC(=O)NC2CCCCC2)[C@@H](O)[C@H](O)C1,–,"inconclusive: 56.2 µM [inhibitor, single point]"
COCCCNC(=O)c1oc2c(c1C)-c1nn(Cc3ccc(Cl)cc3)cc1CC2,–,"inconclusive: 14.1 µM [inhibitor, partial curve, poor fit]"
Cc1ccc(C(=O)CCC(=O)Nc2ccc(C)cc2C)cc1,inactive: 23.4%,–
COCCN1C(=O)CC[C@]2(C(=O)NCc3ccc(OC)c(OC)c3)CCCC[C@@H]12,–,"inconclusive: 1.78 µM [inhibitor, full curve]"
CCOc1ccc(NC(=O)Cn2ccn3nc4c(c3c2=O)CC(C)CC4)cc1 (stereo not given),–,"inconclusive: 39.8 µM [inhibitor, single point]"
CCCCC(CC)CNC(=O)CN(C)S(=O)(=O)c1ccc2c(c1)c(=O)n(C)c(=O)n2C (stereo not given),–,"inconclusive: 4.47 µM [inhibitor, full curve, poor fit]"
CNS(=O)(=O)CCNc1nc(-c2ccccn2)nc2c1c(C)nn2C,inactive: -10.5%,–
O=C(NC1CC1)c1ccc2nnc(-c3ccc(Cl)cc3)n2c1,inactive: 0.791%,–
O=C(Cc1c[nH]c2ncc(-c3ccccc3)cc12)N1CC[S+](=O)([O-])CC1,inactive: 14.5% [at 87.6 µM],–
CC1(C(=O)NCc2ccco2)CN(Cc2ccccc2)Cc2ccc(N3CCOCC3)nc21 (stereo not given),–,"inconclusive: 39.8 µM [inhibitor, single point]"
CCN(CC)CC(=O)N1CCCC(N2CCN(c3ccc(F)cc3)CC2)C1 (stereo not given),–,"inconclusive: 39.8 µM [inhibitor, single point]"
CCNc1cc(N2CCC(CCC(=O)NCc3cccc(F)c3)CC2)ncn1,–,"inconclusive: 8.91 µM [inhibitor, full curve, poor fit]"
COC(=O)c1cc(S(=O)(=O)NCC2CCN(Cc3ccc(C)cc3)CC2)cn1C,–,"inconclusive: 3.98 µM [inhibitor, partial curve, poor fit]"
CCOc1ccc(CNC(=O)CCCn2nc(C)c3sc4ccccc4c3c2=O)cc1,–,"inconclusive: 17.8 µM [inhibitor, single point]"
CCCOc1ccc(-c2nn(-c3ccccc3)cc2C2NC(=O)NC(C)=C2C(=O)OC)cc1 (stereo not given),–,"inconclusive: 8.91 µM [inhibitor, partial curve, poor fit]"
CCN(CC)Cc1cnc2c(C(=O)NCCc3ncc[nH]3)cnn2c1,–,"inconclusive: 1.78 µM [inhibitor, partial curve, poor fit]"
CCc1ccc(NC(=O)CN2C(=O)C(c3ccc(F)cc3)=NC2(C)C)cc1,–,"inconclusive: 0.355 µM [inhibitor, full curve, poor fit]"
O=C(NCCc1ccccn1)C1CCN(Cc2ccccc2-c2cccnc2)CC1,inactive: 1.65%,–
Cc1cc(C)n2nc(C(=O)N3CCC4(CC3)C(=O)Nc3ccccc34)cc2n1,inactive: -5.51%,–
COc1ccc(CC(=O)NC2CCCc3c2[nH]c2ccccc32)cc1OC (stereo not given),–,"inconclusive: 39.8 µM [inhibitor, single point]"

SMILES,"activity change, negative = inhibition",Potency
O=C1NC2(CCCN(C(=O)c3ccc(Cl)cc3)C2)Oc2ccccc21 (stereo not given),–,"inconclusive: 3.16 µM [inhibitor, single point]"
CCSc1ncc(Cl)c(C(=O)N(Cc2ccc(N(C)C)cc2)Cc2ccco2)n1,–,"inconclusive: 39.8 µM [inhibitor, single point]"
C=C(C)CN(C)C(=O)c1cc(CN2CCC(Cc3ccccc3)CC2)on1,–,"inconclusive: 3.55 µM [inhibitor, single point]"
Cc1cccc(-n2nc(C)c(CCC(=O)N(C)C(C)C)c2Oc2ccccc2C)c1,–,"inconclusive: 15.8 µM [inhibitor, partial curve, poor fit]"
Cc1cccc(NC(=O)c2cc(-c3ccc4c(c3)OCCO4)on2)c1,–,"inconclusive: 7.94 µM [inhibitor, partial curve, poor fit]"
CC(=O)NCCC1CCN(C(=O)Nc2ccccc2F)CC1,inactive: -3.34%,–
COc1ccc(OC)c(NC(=O)CSc2cn(CC(=O)N3CCCCCC3)c3ccccc23)c1,–,"inconclusive: 22.4 µM [inhibitor, single point]"
CC(CNC(=O)c1ccc(CSc2nc3ccncc3n2Cc2ccc(F)cc2)cc1)c1ccccc1 (stereo not given),–,"inconclusive: 39.8 µM [inhibitor, single point]"
CCn1ncc(N2CCCC(CC(=O)Nc3cc(OC)cc(OC)c3)C2)cc1=O (stereo not given),inactive: 4.87%,–
Cc1ccc(-c2nc(-c3cc4cccc(OCc5ccc(F)cc5)c4oc3=O)no2)cc1,–,"inconclusive: 39.8 µM [inhibitor, single point]"
COc1ccc(-c2cn3cc(C(=O)NCC(N)=O)nc3c(=O)n2CC2CC2)c(F)c1,–,"inconclusive: 25.1 µM [inhibitor, single point]"
CN1CCN(c2ncncc2-c2ccc(C(=O)N(C)C)cc2)CC1,–,"inconclusive: 2.51 µM [inhibitor, partial curve, poor fit]"
O=C(NCc1nnnn1-c1ccccc1)C1NCCc2[nH]cnc21 (stereo not given),inactive: 8.41%,–
COc1ccc(NC(=O)Cn2c(N3CCN(c4ccccc4)CC3)nc(C)cc2=O)cc1Cl,inactive: -11.2%,–
CC(=O)c1cc(CN2CCCC(C(=O)c3cccc(OC(C)C)c3)C2)cs1 (stereo not given),–,"inconclusive: 4.47 µM [inhibitor, full curve, poor fit]"
CN(Cc1ccc(-c2ccccc2)cc1)C(=O)Cc1cccc(Cl)c1,inactive: 57.8% [at 87.6 µM],–
Cc1ccc(Cl)cc1NC(=O)N1CCC2(CC1)Oc1ccccc1C(=O)N2Cc1ccccc1F,–,"inconclusive: 7.08 µM [inhibitor, single point]"
CN1Cc2ccc(NCc3ccccc3)nc2C(C)(C(=O)NCc2ccccc2)C1 (stereo not given),inactive: -9.87% [at 87.6 µM],–
CC1CCCC(C)N1C(=O)c1ccc2nc(-c3ccncc3)oc2c1 (stereo not given),inactive: 27.4% [at 87.6 µM],–
Cc1cccc(OCC2(CNC(=O)c3cccc(F)c3)C[C@@H](O)[C@@H](O)C2)n1 (stereo not given in full),–,"inconclusive: 20 µM [inhibitor, partial curve, poor fit]"
O=C(NC[C@H]1O[C@@H](CO)[C@@H](O)[C@H]1N1CCN(c2cccc(C(F)(F)F)c2)CC1)Nc1ccc(F)cc1F,–,"inconclusive: 3.55 µM [inhibitor, full curve]"
